# About 230 (0.21%) of roughly 110,000 compounds showed an effect of 50% or more. The list shows a part of the results.
# Target: DPAP1 (Plasmodium falciparum, UniProt Q8IIJ9)
# Assay: primary screen, percent inhibition; read by cleavage of a fluorogenic dipeptide substrate; higher = more effect of the substance
# Parameters: species or system P. falciparum D10 trophozoite lysates; single well
# 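Further: 30 min substrate incubation versus DMSO and 10 µM JCP410 controls.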
# Chain of DPAP1 (Q8IIJ9 whole entry, looked up): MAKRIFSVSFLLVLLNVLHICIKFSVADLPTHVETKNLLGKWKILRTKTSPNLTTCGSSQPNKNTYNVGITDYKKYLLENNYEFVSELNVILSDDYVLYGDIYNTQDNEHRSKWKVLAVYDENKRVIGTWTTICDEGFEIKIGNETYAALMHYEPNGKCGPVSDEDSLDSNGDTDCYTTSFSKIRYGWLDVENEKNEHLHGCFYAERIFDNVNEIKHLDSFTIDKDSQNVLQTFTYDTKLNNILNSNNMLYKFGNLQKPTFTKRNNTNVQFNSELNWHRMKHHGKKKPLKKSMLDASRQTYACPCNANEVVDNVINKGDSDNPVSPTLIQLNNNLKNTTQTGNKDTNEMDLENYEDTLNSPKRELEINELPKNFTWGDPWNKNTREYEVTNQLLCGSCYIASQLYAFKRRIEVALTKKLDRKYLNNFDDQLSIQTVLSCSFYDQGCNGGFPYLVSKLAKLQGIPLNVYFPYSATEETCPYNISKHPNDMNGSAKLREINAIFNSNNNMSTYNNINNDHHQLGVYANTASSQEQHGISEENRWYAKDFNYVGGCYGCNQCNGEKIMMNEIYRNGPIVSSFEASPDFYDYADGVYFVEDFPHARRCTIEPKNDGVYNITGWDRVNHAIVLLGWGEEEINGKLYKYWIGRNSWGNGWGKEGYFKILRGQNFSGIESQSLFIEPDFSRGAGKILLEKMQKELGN
row,Compound,% Inhibition @ 10 uM [%]
1,C=CCc1cc(/C=C2/NC(=O)NC2=O)cc(OC)c1O,-1.25
2,O=C1C2C3CCC(C3)C2C(=O)N1c1ccc2ccccc2c1 (centres unmarked),-3.83
3,O=C1NC(=S)N(c2ccccc2)C(=O)/C1=C/c1ccc(O)cc1,1.43
4,O=c1c2nccnc2nc(SCc2ccc(Cl)cc2)n1Cc1ccco1,1.96
5,COc1cc(S(=O)(=O)n2cnc3ccccc32)ccc1Br,-2.98
6,Clc1ccc(N2CCN(Cc3cccc4ccccc34)CC2)cc1,-1.86
7,Cc1cccc(-c2noc(CN(C(=O)c3ccc(C)cc3Cl)C(C)C)n2)c1,1.66
8,CCCCN1C(=O)c2[nH]nc(-c3ccccc3O)c2C1c1cccc(O)c1 (centres unmarked),1.82
9,Cc1c(Cl)c(C(F)(F)F)nn1CC(=O)NCc1ccco1,-4.24
10,C(=C\c1nn2c(-c3ccccc3)nnc2s1)/c1ccccc1,7.97
11,CC(=O)Nc1cccc(NC(=O)C2CC3CCC2C3)c1 (centres unmarked),5.74
12,O=C(Cn1ncc2c1-c1ccoc1CC2)NCc1ccccc1Cl,0.0882
13,CC(C)CCN1CC(C(=O)NCCC2=CCCCC2)CC1=O (centres unmarked),6.86
14,COc1ccccc1OCCn1cnc2ccccc21,-13.3
15,Cc1ccccc1-n1c(S)nnc1CN1CCN(C)CC1,-0.969
16,CCOc1ccccc1NC(=O)CN(c1ccc(OC)c(Cl)c1)S(C)(=O)=O,3.66
17,O=C(CCCn1c(=O)c2cccn2c2cccnc21)N1CCN(C2CCCCC2)CC1,3.1
18,O=C(c1ccccc1Cl)N1CCN(c2ccccc2)CC1,3.48
19,c1ccc(C(CN2CCN(c3ccccc3)CC2)c2ccccc2)cc1,-2.21
20,CC(C)NC(=O)CCCSc1nc(-c2ccco2)cc(C(F)(F)F)n1,-9.37
21,CCOc1ccc2nc(N3CCC(C(=O)NC(C)CC)CC3)sc2c1 (centres unmarked),-5.19
22,COc1cccc(N2C(=O)C(O)=C(C(=O)c3ccccc3)C2c2ccc(O)c(OC)c2)c1 (centres unmarked),-0.63
23,COC(=O)C1=CN(Cc2ccc(Cl)cc2)C=C(C(=O)OC)C1c1ccc2c(c1)OCO2,6.48
24,O=C(Nc1ccccc1C(=O)NCc1ccco1)c1ccc(-c2ccccc2)cc1,-5.6
25,COc1cc(OC)cc(C(=O)NCc2nc(-c3ccccc3)no2)c1,-1.22
26,Cc1ccc2c(nc3s/c(=C\c4ccccc4Cl)c(=O)n32)c1C,5.16

row,Compound,% Inhibition @ 10 uM [%]
1,COc1ccc(Cl)cc1-c1nc(N)nc(NCCc2ccccc2)n1,-2.65
2,COc1c(Cl)cc(Cl)cc1/C=C(\C#N)c1nn(-c2ccccc2)c(N)c1C#N,9.09
3,Cc1c(C(=O)NCCc2ccc(Cl)cc2)oc2ccc(S(=O)(=O)N3CCC(C)CC3)cc12,12.1
4,COc1ccc(OC)c(CN2CCN(c3cccc(C)c3C)CC2)c1,3.16
5,COc1ccccc1CNC1=NS(=O)(=O)C(c2ccc(C)cc2)=C1C,-3.08
6,CCOC(=O)C(=O)CC(=O)c1ccc(CC)cc1,-7.02
7,Nc1nonc1-c1nc2ccccc2n1Cc1cc2c(cc1Br)OCO2,-1.11
8,COc1ccc(CCN2C(=O)CSC2c2ccc(Cl)cc2)cc1OC (centres unmarked),-20
9,CS(=O)(=O)n1nc(-c2ccco2)nc1SCc1ccccc1,-6.55
10,CC(C)C[C@H](C(=O)O)N1Cc2ccccc2C1=O,0.708
11,CC1C(C#N)=C(N)SC(N)=C1C#N,67.5
12,O=C(NCCCN1CCN(Cc2ccccc2)CC1)C1CCN(S(=O)(=O)N2CCCC2)CC1,3.79
13,COc1cccc2c1Oc1ncccc1N(C(=O)CCC(=O)NCCN(C)C)C2,12.1
14,Fc1ccc(-c2cn3c4ccccc4n(CCN4CCCC4)c3n2)cc1,3.74
15,COc1ccc(NC(=O)CNS(=O)(=O)c2ccc(Cl)cc2)cc1,-5.49
16,CCc1cccc(CC)c1NC(=O)c1ccc2c(c1)OCO2,1.88
17,O=C(Nc1ccccc1F)c1ccc(Cn2cc(Br)cn2)cc1,-1.08
18,CC1CN(C2CCc3ccccc3C2)CC(C)O1 (centres unmarked),-5.44
19,CCN1CCC(NC2C3CC4CC(C3)CC2C4)CC1 (centres unmarked),-1.78
20,Cc1ccc(S(=O)(=O)CNC(=S)c2ccccc2)cc1,2.22
21,Fc1ccc(Br)cc1C1C=C(c2ccc(Br)s2)Nc2ncnn21 (centres unmarked),1.73
22,CCC(=O)CC(c1ccc([N+](=O)[O-])cc1)c1c(O)oc2ccccc2c1=O (centres unmarked),-4.96
23,O=C(O)C1C2CCC(C2)C1C(=O)Nc1ccc(Br)cc1F (centres unmarked),-6.08
24,COCCCNC(=O)c1cc(O)nc2ccc(S(=O)(=O)N3CCCCCC3)cc12,5.7
25,CC(C)(C)C(/C=C\c1ccc(Cl)cc1Cl)n1nnnc1C(c1ccc(Cl)cc1)N1CCOCC1 (centres unmarked),6.61
26,COc1ccc(/C=C/c2nc(=O)c3ccccc3o2)cc1,-0.171

row,Compound,% Inhibition @ 10 uM [%]
1,CCOc1ccc(NC2=C(Cl)C(=O)N(Cc3ccccc3)C2=O)cc1,1.08
2,CC(C)(C)NC(=O)COc1ccc2ccccc2c1Br,0.755
3,Cc1cc(=O)oc2c3c(ccc12)OCN(CCc1ccccc1)C3,-2.65
4,O=C1c2n[nH]c(-c3ccccc3O)c2C(c2ccccc2F)N1CC1CCCO1 (centres unmarked),5.17
5,CSC1=C(C#N)C(c2ccc(F)cc2)CC(=O)N1 (centres unmarked),5.58
6,CCOC(=O)N1CCN(CC(=O)Nc2cc(C)on2)CC1,1.03
7,COC(=O)c1sc(NC(=O)c2cc(Cl)ccc2OC)c(C#N)c1C,22.4
8,CCN1CCc2c(sc(-n3cccc3)c2C(CCC(C)C)NC(=O)NCCCOC)C1 (centres unmarked),-5.59
9,CN(C)C(=O)CSc1nc2ccc(N3C(=O)c4ccccc4C3=O)cc2s1,-1.84
10,CCOC(=O)/C(C(=N)C(F)(F)F)=C(\O)OCC,4.84
11,CCC(C)[C@@H](C(=O)NCc1ccccc1C)N1Cc2ccccc2C1=O (some centres unmarked),2.93
12,COc1cccc(O[C@@H]2O[C@@H]3COC(C)(C)O[C@H]3[C@H](O)[C@H]2NC(C)=O)c1,4.67
13,CC(C)N(Cc1nc(-c2ccc(Cl)cc2)no1)C(=O)CCc1ccccc1,-0.646
14,COc1cc(C2C3=C(O)CCCC3=NC(C)=C2C(=O)Nc2c(F)cccc2F)cc(OC)c1OC (centres unmarked),-5.58
15,COc1ccc(C(=O)NC2CCCCCC2)cc1,0.147
16,CC1(C)CC(=O)c2c(-c3cccnc3)n[nH]c2C1,-3.63
17,c1nc(N2CCCC3CCCCC32)c2nc[nH]c2n1 (centres unmarked),1.9
18,COc1ccc(C(=O)Nc2ccc(F)cc2F)cc1,1.04
19,CNS(=O)(=O)c1cn(CC(=O)NC2CCN(Cc3ccccc3)CC2)cc1S(=O)(=O)NC,-0.165
20,CCCCNC(=O)c1cc2c(Cl)nc3ccccc3c2s1,3.88
21,CC(C)Oc1cccc(-c2cc(C(=O)N3CCOCC3)c3ccccc3n2)c1,13
22,Cc1ccc(NS(=O)(=O)c2ccc(NC(=O)COc3ccccc3)cc2)c(C)c1,-4.7
23,Cc1cc(=O)oc2c3c(ccc12)OCN(Cc1ccc2c(c1)OCO2)C3,10.2
24,CCN(CC)/C(C)=N/C(=O)NC(c1ccc(C)cc1)C(Cl)(Cl)Cl (centres unmarked),1.03
25,CCN(CC)CCCNc1oc(/C=C/c2cccs2)nc1C#N,-3.49
26,O=C(CSc1nnc(O)nc1O)OCc1ccccc1,6.19

row,Compound,% Inhibition @ 10 uM [%]
1,CCOC(=O)c1cc(S(=O)(=O)N(CCc2ccccc2)Cc2ccccc2)cn1C,-6.59
2,Cc1ccc2oc(=O)c3cc(C(=O)N(CCN(C)C)Cc4ccccc4)sc3c2c1,-3.06
3,Cc1nccn1S(=O)(=O)c1ccc2ccccc2c1,-4.21
4,CC1CC(=O)C2=C(C1)OC(N)=C(C#N)C2c1ccoc1 (centres unmarked),-1.38
5,O=C1c2ccccc2C(O)N1Cc1ccccc1Cl (centres unmarked),-1.03
6,CN1C(=O)CC(C(=O)Nc2ccc(C(=O)O)cc2)S/C1=N\c1cccc(Cl)c1 (centres unmarked),1.31
7,Cc1cccc(OCCc2c(C)n[nH]c2C)c1C,1.63
8,CCCc1nn(-c2ccc(F)cc2)c(O)c1/C=N/Cc1ccc(Cl)cc1,-2.83
9,COc1ccc(-c2cc(C(=O)N3CCCC3)c3ccccc3n2)cc1,2.9
10,CCCn1c(=N)n(CC(=O)c2ccco2)c2ccccc21,3.44
11,COc1ccc(-c2cc(C(F)(F)F)n3nc(C(=O)Nc4cccnc4Cl)cc3n2)cc1,-3.89
12,Cc1cc(C)n(-c2cccc3cccnc23)n1,-1.69
13,CC(=O)N1C(=S)NC(=O)/C1=C\c1cccnc1,-6.02
14,CC1=Nc2nnnn2C(c2ccccc2)/C1=C(\O)OCc1ccccc1 (centres unmarked),-4.1
15,Cc1ccccc1Cc1c(C)nc2c(C(=O)NC3CCCC(C)C3C)cnn2c1C (centres unmarked),7.47
16,COCc1cc(C)nc(N2CCN(Cc3ccccc3)CC2)c1C#N,-1.32
17,CC(C)(C)C(=O)Nc1ccc(S(=O)(=O)Nc2cnc3ccccc3n2)cc1,-4.22
18,CCCNC(=O)c1ccc(N(C)S(=O)(=O)c2ccccc2)cc1,-2.28
19,CCOC(=O)c1c(C)[nH]c(C)c1S(=O)(=O)N(C)CC(=O)Nc1cccc(C)n1,-0.695
20,O=C(N1CC2CC(C1)c1cccc(=O)n1C2)n1ccnc1 (centres unmarked),0.0198
21,CCOc1cccc(/C=C2\S/C(=N/c3ccc(OC)cc3)N(CC)C2=O)c1O,-5.35
22,COc1ccc2c(c1)c1nc3n(c(=O)c1n2CC(=O)Nc1cc(C)[nH]n1)CCS3,-10
23,CCc1ccc(C2=C/C(=C/c3ccc(C)c(OC)c3)C(=O)O2)cc1,-3.74
